Biological target: T1, NMDA receptor subunit GluN1 (rat (endogenous in hippocampus), UniProt P35439)
T1 construct: NMDA receptor subunit GluN1, rat, endogenous in hippocampus; Detected by blot as a subunit of native NMDARs; source: endogenous, rat hippocampal homogenate (slices or cultured hippocampal neurons)
Assay: co-IP; total rat hippocampal lysates with primary antibody and Protein A/G agarose, 4°C; buffer pH 7.4, 0.05 mol/L HEPES, 0.15 mol/L NaCl, 0.5% NP-40, 1% Triton X-100; non-immune IgG as control; slices untreated or treated with PMA (0.5 umol/L, 10 min) and/or AIP (1 umol/L)
Conditions: partners not purified

- co-IP signal with PMA, normalised to control (IP with anti-GluN1): 1.52 fold of control
B1: myosin Va (natural protein)
chain: not shown
notes: myosin Va, rat, endogenous in hippocampus; also called MyoVa; source: endogenous, rat hippocampal homogenate

Reference: article PMC11306496, “Myosin Va-dependent Transport of NMDA Receptors in Hippocampal Neurons” (Neuroscience Bulletin, 2024)
